Experiment [1] has as its target T1, ORF74-Rluc8 (Kaposi's sarcoma-associated herpesvirus …, UniProt Q98146 1-342).
T1 construct: also called WT-ORF74-Rluc8; WT (in BRET panels); source: HEK293T, transiently transfected, on or in intact cells; not shown: Rluc8, C-terminal, kept
T1 sequence: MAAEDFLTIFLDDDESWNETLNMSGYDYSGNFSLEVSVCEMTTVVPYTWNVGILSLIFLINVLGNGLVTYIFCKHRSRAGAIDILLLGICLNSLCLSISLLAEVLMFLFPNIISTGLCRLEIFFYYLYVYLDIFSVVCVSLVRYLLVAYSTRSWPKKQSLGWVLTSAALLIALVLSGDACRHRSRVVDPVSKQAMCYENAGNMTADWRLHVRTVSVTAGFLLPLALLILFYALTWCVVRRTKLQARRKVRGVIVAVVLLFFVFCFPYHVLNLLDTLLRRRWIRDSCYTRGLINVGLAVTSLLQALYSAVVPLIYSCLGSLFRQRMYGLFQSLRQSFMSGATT
As to the kind of experiment: radioligand binding; whole transfected HEK293T cells, 100 pM ^125I-CXCL8 with increasing unlabeled CXCL1 or CXCL8, 3h at 4°C, 50 mM HEPES pH 7.4, 1 mM CaCl2, 5 mM MgCl2, 0.5% BSA; washes with 0.5 M NaCl; Ki from IC50 by Cheng and Prusoff. The conditions noted are these: one partner purified.

The target of another experiment is T2, WT-ORF74 (Kaposi's sarcoma-associated herpesvirus …, UniProt Q98146 1-342).
T2 sequence: T1 sequence
As to the kind of experiment: cell-based or functional assay.

For experiment [2], the target named is T1, ORF74-Rluc8. As to the kind of experiment: cell-based or functional assay.

We go through one molecule from article PMC4403821, “The Viral G Protein-Coupled Receptor ORF74 Hijacks β-Arrestins for Endocytic Trafficking in Response to Human Chemokines” (PLoS ONE, 2015).

B1: CXCL8 (ligand)
chain: not shown
As for B1, the pKi (in general, −log10 of the Ki, conventionally taken in molar units) in the experiment with ORF74-Rluc8 [1] worked out at 8.8. Besides, the “PLC activation (InsP accumulation) in HEK293T, pEC50; agonist” value in the experiment with WT-ORF74 is greater than 7. Also, in the experiment with ORF74-Rluc8 [2], the “PLC activation (InsP accumulation) in HEK293T, pEC50; agonist” value is greater than 7; the “β-arrestin1-eYFP recruitment to ORF74-Rluc8 (BRET), pEC50 of the chemokine; agonist” value is greater than 7; the “β-arrestin2-eYFP recruitment to ORF74-Rluc8 (BRET), pEC50 of the chemokine; agonist” value was greater than 7.
